Out of some 340,000 compounds screened, about 12,000 (3.5%) were called active. This list was built around the results that the source calls inconclusive (neither active nor inactive); the mix of calls is not that of the screen. The call rests on the fitted dose curve; in most records, active means well fitted inhibition curve with a large enough effect; inconclusive means small, poorly fitted or top-dose-only effect, or another doubt; inactive means no such curve, though single readings can be large or run the other way. Potencies of inconclusive entries are left out as doubtful fits.
Experiment: qHTS Assay for Inhibitors of Hepatitis C Virus (HCV)
Conditions: Huh7.5.1 HCVcc-Cre (HCVcc is cell-culture hepatitis C virus) infection, luciferase reporter, 44 h; series mostly up to 41.8 µM
Method in brief: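 Compounds are dispensed onto cells plated 4 h earlier at 1,000 per well, with HCVcc-Cre virus (about 0.5 moi) added next. Following 44 h of culture, luminescent signal is measured for 15 sec after 15 min with substrate at room temperature.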
Potency means the concentration at half of the fitted maximal effect; tags describe the fitted curve by direction and shape.

| Structure (SMILES) | Potency |
| --- | --- |
| CNC(=O)c1nnn(Cc2ccccc2)c1NC(C)=O | inconclusive [inhibitor, partial curve, poor fit] |
| O=C(CNC(=O)OCc1ccccc1)Nc1ccc(Br)cc1C(=O)c1ccccc1 | inconclusive [inhibitor, single point] |
| O=S(=O)(NCc1ccccc1)c1ccccc1NCc1ccc(Cl)cc1 | inconclusive [inhibitor, partial curve, poor fit] |
| COc1ccc(NC(C)=O)cc1NC(=O)C1CCCN1C(=O)c1cccs1 (stereo not drawn) | inactive |
| COC(=O)c1sc2nc(SCc3ccccc3C)n(N)c(=O)c2c1C | inconclusive [inhibitor, single point] |
| CCOC(=O)C1CCN(C(=O)c2c(-c3c(F)cccc3Cl)noc2C)CC1 | inconclusive [inhibitor, single point] |
| COc1ccc(C(C)=O)cc1COc1ccc([N+](=O)[O-])c(C)c1 | inconclusive [inhibitor, single point] |
| Cc1ccc(S(=O)(=O)N(C)C)cc1NC(=S)NC1CCCC(C)C1C (stereo not drawn) | inconclusive [inhibitor, single point] |
| Cc1onc(-c2ccccc2)c1C(=O)Nc1ccc(S(=O)(=O)NC2=NCCCCC2)cc1 | inconclusive [inhibitor, full curve] |
| COc1ccc(CC2(CO)CCN(Cc3cc4ccccc4o3)CC2)cc1 | inconclusive [inhibitor, single point] |
| CCC(C)n1c(SCC(=O)Nc2ccccc2C(F)(F)F)nc2ccsc2c1=O (stereo not drawn) | inconclusive [inhibitor, single point] |
| COc1ccc(CCNc2nc(=S)[nH]c3cc(OC)c(OC)cc23)cc1OC | inconclusive [inhibitor, single point] |
| CCn1nc(C(=O)NNS(=O)(=O)c2ccc(C)cc2)c2ccccc2c1=O | inactive |
| O=C(c1ccc(OC2CCN(Cc3cccc(OCCO)c3)CC2)cc1)N1CCCC1 | inactive |
| CC(C)C(NCC(=O)Nc1ccccc1C(=O)NC1CC1)c1ccccc1 (stereo not drawn) | inactive |
| CC(=O)c1ccc(N2CCN(C(=O)c3cc(-c4cccnc4)nc4ccc(Br)cc34)CC2)cc1 | inconclusive [inhibitor, partial curve] |
| O=C(Nc1ccc(Cl)cc1-c1nc2ccccc2s1)c1ccco1 | inconclusive [inhibitor, single point] |
| CCOc1cc(C(=O)Nc2ccc(S(=O)(=O)NC3=NCCCCC3)cc2)cc(OCC)c1OCC | inconclusive [inhibitor, partial curve, poor fit] |
| N#Cc1c2c(c(=S)n(-c3ccccc3)c1N)CCCC2 | inconclusive [inhibitor, single point] |
| CCOc1ccc(-c2cc(C(=O)N3CCC(C)CC3)c3ccccc3n2)cc1 | inconclusive [inhibitor, partial curve] |
| CC(C)CN(CC(C)C)S(=O)(=O)N1CCC(C(=O)NCc2ccco2)CC1 | inactive |
| NC(=NCCc1c[nH]c2ccccc12)NS(=O)(=O)c1ccc(F)cc1 | inconclusive [inhibitor, single point] |
| COCC1CCCN(C(=O)c2cc(COc3ccc4ncccc4c3)on2)C1 (stereo not drawn) | active: 1 µM |
| C/C(=N\NC(=O)c1c(Br)c(C)nn1C)c1ccc(NC(=O)c2ccoc2C)cc1 | inconclusive [inhibitor, partial curve] |
| Cc1ccc2oc(=O)c3cc(C(=O)NCCN4CCN(C)CC4)sc3c2c1 | inconclusive [inhibitor, single point] |

| Structure (SMILES) | Potency |
| --- | --- |
| CCC1Oc2ccc(C)cc2N(CC(=O)NCCc2ccc(OC)c(OC)c2)C1=O (stereo not drawn) | inconclusive [inhibitor, single point] |
| CN(C(=O)c1ccccc1-c1ncc[nH]1)C1CCCN(Cc2ccccc2F)C1 (stereo not drawn) | inactive |
| COc1ccc2oc(C(=O)OC(C)C(=O)N3CCC(C)CC3)c(C)c2c1 (stereo not drawn) | inconclusive [inhibitor, partial curve] |
| COC(=O)C1=C(N)Oc2cc(C)n(CCCn3ccnc3)c(=O)c2C1c1ccc(Cl)cc1 (stereo not drawn) | inactive |
| O=C(CN1C(=O)NC2(CCCc3ccccc32)C1=O)NCCc1ccc(F)cc1 (stereo not drawn) | inconclusive [inhibitor, partial curve] |
| O=C(CCC(=O)c1ccc(-c2ccccc2)cc1)Nc1cccnc1 | inconclusive [inhibitor, single point] |
| COc1ccc(OCC(O)Cn2c(Nc3cccc(C)c3)nc3c2c(=O)n(C)c(=O)n3C)cc1 (stereo not drawn) | inactive |
| Cc1cccc(-n2c(/C=C/c3ccccn3)nc3ccccc3c2=O)c1 | inconclusive [inhibitor, single point] |
| CCOc1ccc(S(=O)(=O)N2CCCCC2)cc1NC(=O)Cc1cccs1 | inconclusive [inhibitor, single point] |
| CCOC(=O)C(Cc1ccccc1)C(=O)Nc1cccc(C)c1 (stereo not drawn) | inactive |
| N#Cc1nc(COc2ccc(Br)cc2)oc1NCCCn1ccnc1 | inconclusive [inhibitor, single point] |
| CC#CCN1C=C(C(=O)OCC)C(C)N(Cc2ccc(Br)cc2)S1(=O)=O (stereo not drawn) | inconclusive [inhibitor, single point] |
| CCc1nc(Nc2ccc3c(c2)OCO3)c2oc3ccccc3c2n1 | inconclusive [inhibitor, single point] |
| CC(=O)c1cc2c(cc1NC(=O)C1CCC1)OCO2 | inconclusive [inhibitor, single point] |
| COc1ccc(OC)c(NC(=S)N2CCN(C/C=C/c3ccccc3)CC2)c1 | inconclusive [inhibitor, partial curve] |
| CCCc1ccc(-c2cc(C(=O)N3CCN(c4ccccn4)CC3)c3ccccc3n2)cc1 | inconclusive [inhibitor, partial curve] |
| COc1ccc(C)cc1NC(=O)CSc1ccc(Cl)cc1 | inconclusive [inhibitor, partial curve] |
| CCCCCn1c(=N)n(CC(O)COc2ccccc2OC)c2ccccc21 (stereo not drawn) | active: 11.2 µM |
| O=C(Cn1cnc2c(NCc3ccccc3)ncnc21)NCCN1CCOCC1 | inconclusive [inhibitor, partial curve, poor fit] |
| COc1ccc(N2Cc3cccc(C(=O)NC(C)CCc4ccco4)c3C2=O)cc1 (stereo not drawn) | inactive |
| CCOC(=O)c1oc2ccccc2c1NC(=O)c1ccc(Cl)s1 | inactive |
| CCCCC/C=C\C/C=C\C/C=C\CCCCC(=O)O | inactive |
| O=C(CSc1ccc(-c2cccnc2)nn1)Nc1ccc(Br)cc1 | active: 12.6 µM |
| Cc1ccc(Cn2nc(C)c(NC(=O)c3cc(-c4ccco4)on3)c2C)cc1 | inconclusive [inhibitor, partial curve] |
| CC1CCN(C(=O)Cn2c3ccc(F)cc3c3nc4n(c(=O)c32)CCCS4)CC1 | inconclusive [inhibitor, single point] |

| Structure (SMILES) | Potency |
| --- | --- |
| COc1ccc(F)cc1S(=O)(=O)Nc1cc2c3c(c1)CCN3C(=O)CC2 | inactive |
| CN1CCN(NC(=O)CN(C)S(=O)(=O)c2cc(Cl)ccc2Cl)CC1 | inactive |
| COc1ccc(CCNC(=O)c2ccc3ccccc3n2)cc1 | inactive |
| CC(Nc1cc(N2CCNCC2)ccc1[N+](=O)[O-])c1ccccc1 (stereo not drawn) | active: 3.55 µM |
| CC1Sc2ccc(C(=O)NCc3ccccc3Cl)cc2NC1=O (stereo not drawn) | inactive |
| O=C1CC(SCCc2nc3ccccc3[nH]2)C(=O)N1c1ccc(Cl)cc1 (stereo not drawn) | inactive |
| CCOC(=O)/C(C#N)=C/Nc1ccccc1OC(F)(F)F | inactive |
| Cc1ccc(Nc2nc(-c3c(C)nc4ncccn34)cs2)cc1 | inconclusive [inhibitor, full curve] |
| CC(C)CCOc1ncnc2c1sc1nc3c(cc12)CSC(C)(C)C3 | inconclusive [inhibitor, single point] |
| O=C(Nc1ccccc1)C1CCN(S(=O)(=O)c2ccc3c(c2)OCCO3)CC1 | inconclusive [inhibitor, single point] |
| COc1ccc(CC(=O)N2CCc3ccccc3C2)cc1 | inactive |
| Cc1ccc(-c2c(C(=O)O)c3ccccc3[nH]c2=O)cc1 | inactive |
| CSc1ccc(CNCCCSc2ncccn2)cc1 | inactive |
| CCOc1cc(N2CCOCC2)c(OCC)cc1NC(=O)COc1cccc2cccnc12 | active: 7.94 µM |
| CCN1CCN(C(=O)c2ccc3c(Cl)c4c(nc3c2)CCCC4)CC1 | inconclusive [inhibitor, partial curve] |
| O=C(CN1CCC(C(=O)c2ccc(F)cc2)CC1)Nc1ccc(F)cc1 | active: 10 µM |
| CCOC(=O)Cn1c2ccc(C)cc2c2nc(C)sc21 | inconclusive [inhibitor, partial curve] |
| CC(=O)c1ccc(Oc2cc(C)nc(-n3nc(C)cc3C)n2)cc1 | inconclusive [inhibitor, full curve] |
| NC(=O)C[C@H](N)c1cn([C@@H](CC(N)=O)C(=O)N2CCNCC2)nn1 | inactive |
| Cc1cc(=O)n(CC=C(Cl)Cl)c2ccccc12 | inconclusive [inhibitor, single point] |
| O=C(Nc1nccs1)c1ccc[nH]c1=O | inactive |
| CC1(C)CN=C(Nc2ccccc2C(F)(F)F)S1 | inconclusive [inhibitor, single point] |
| Cc1cccc(NC(=O)C2CCN(S(=O)(=O)c3cccs3)CC2)c1 | inactive |
